{"source": "the supplement of paper PMC4967469", "key": {"AICAR": {"compound": "NC(=O)c1ncn([C@@H]2O[C@H](CO)[C@@H](O)[C@H]2O)c1N [AICAR]", "experiment": "Viability of human cancer cell lines after 72 h of drug (GDSC screen)", "conditions": "top dose 2000 µM; top dose inferred", "method": "(§1)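 Human cancer cell lines in 384-well plates, medium with 10% serum, drug for 72 h over a 256-fold dose range (nine 2-fold or five 4-fold steps up to the top dose). Adherent lines were fixed and stained with the nucleic acid dye Syto60, suspension lines read with resazurin; signal relative to control wells, capped at 0 and 100%. One two-parameter sigmoid per drug and line, fitted in a mixed model over all curves with the slope shared within a line.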"}, "AKT inhibitor VIII": {"compound": "O=c1[nH]c2ccccc2n1C1CCN(Cc2ccc(-c3[nH]c4cc5ncnc5cc4nc3-c3ccccc3)cc2)CC1 [AKT inhibitor VIII]", "experiment": "Viability of human cancer cell lines after 72 h of drug (GDSC screen)", "conditions": "top dose inferred", "method": "as §1"}, "[1]": {"conditions": "top dose 2.56 µM, screen: GDSC drug entry 171"}, "[2]": {"conditions": "top dose 10.24 µM, screen: GDSC drug entry 228"}}, "note": "A lower IC50 marks a more sensitive line; where the fit passes the top or lowest dose, that dose stands as a limit. For AUC the same curve is integrated over the 256-fold range of doses and scaled to a fraction; it is 1 without any effect and falls as sensitivity rises. The top dose, if marked as inferred, was calculated from the reported fits. For some of these results: Where an entry number is given, a second screen of the drug exists; the two often differ.", "data": [{"cell line": "BICR22 (head and neck, adherent)", "values": [{"measurement": "AUC", "setting": "AICAR", "result": 0.708}, {"measurement": "IC50", "setting": "AICAR", "result": 532, "unit": "µM"}, {"measurement": "AUC", "setting": "AKT inhibitor VIII; [1]", "result": 0.954}, {"measurement": "IC50", "setting": "AKT inhibitor VIII; [1]", "result": "> 2.56", "unit": "µM"}, {"measurement": "AUC", "setting": "AKT inhibitor VIII; [2]", "result": 0.963}, {"measurement": "IC50", "setting": "AKT inhibitor VIII; [2]", "result": "> 10.2", "unit": "µM"}]}, {"cell line": "BICR78 (head and neck, adherent)", "values": [{"measurement": "AUC", "setting": "AICAR", "result": 0.783}, {"measurement": "IC50", "setting": "AICAR", "result": 984, "unit": "µM"}, {"measurement": "AUC", "setting": "AKT inhibitor VIII; [1]", "result": 0.806}, {"measurement": "IC50", "setting": "AKT inhibitor VIII; [1]", "result": 1.55, "unit": "µM"}, {"measurement": "AUC", "setting": "AKT inhibitor VIII; [2]", "result": 0.964}, {"measurement": "IC50", "setting": "AKT inhibitor VIII; [2]", "result": "> 10.2", "unit": "µM"}]}, {"cell line": "BL-41 (Burkitt lymphoma, suspension)", "values": [{"measurement": "AUC", "setting": "AICAR", "result": 0.695}, {"measurement": "IC50", "setting": "AICAR", "result": 378, "unit": "µM"}, {"measurement": "AUC", "setting": "AKT inhibitor VIII; [1]", "result": 0.978}, {"measurement": "IC50", "setting": "AKT inhibitor VIII; [1]", "result": "> 2.56", "unit": "µM"}, {"measurement": "AUC", "setting": "AKT inhibitor VIII; [2]", "result": 0.672}, {"measurement": "IC50", "setting": "AKT inhibitor VIII; [2]", "result": 1.69, "unit": "µM"}]}, {"cell line": "BT-20 (breast, adherent)", "values": [{"measurement": "AUC", "setting": "AICAR", "result": 0.832}, {"measurement": "IC50", "setting": "AICAR", "result": 1720, "unit": "µM"}, {"measurement": "AUC", "setting": "AKT inhibitor VIII; [1]", "result": 0.876}, {"measurement": "IC50", "setting": "AKT inhibitor VIII; [1]", "result": "> 2.56", "unit": "µM"}, {"measurement": "AUC", "setting": "AKT inhibitor VIII; [2]", "result": 0.842}, {"measurement": "IC50", "setting": "AKT inhibitor VIII; [2]", "result": 9.84, "unit": "µM"}]}, {"cell line": "BT-474 (breast, adherent)", "values": [{"measurement": "AUC", "setting": "AICAR", "result": 0.955}, {"measurement": "IC50", "setting": "AICAR", "result": "> 2000", "unit": "µM"}, {"measurement": "AUC", "setting": "AKT inhibitor VIII; [1]", "result": 0.944}, {"measurement": "IC50", "setting": "AKT inhibitor VIII; [1]", "result": "> 2.56", "unit": "µM"}, {"measurement": "AUC", "setting": "AKT inhibitor VIII; [2]", "result": 0.559}, {"measurement": "IC50", "setting": "AKT inhibitor VIII; [2]", "result": 0.943, "unit": "µM"}]}, {"cell line": "BT-483 (breast, adherent)", "values": [{"measurement": "AUC", "setting": "AICAR", "result": 0.964}, {"measurement": "IC50", "setting": "AICAR", "result": "> 2000", "unit": "µM"}, {"measurement": "AUC", "setting": "AKT inhibitor VIII; [1]", "result": 0.947}, {"measurement": "IC50", "setting": "AKT inhibitor VIII; [1]", "result": "> 2.56", "unit": "µM"}, {"measurement": "AUC", "setting": "AKT inhibitor VIII; [2]", "result": 0.816}, {"measurement": "IC50", "setting": "AKT inhibitor VIII; [2]", "result": "> 10.2", "unit": "µM"}]}, {"cell line": "Becker (glioma, adherent)", "values": [{"measurement": "AUC", "setting": "AICAR", "result": 0.962}, {"measurement": "IC50", "setting": "AICAR", "result": "> 2000", "unit": "µM"}, {"measurement": "AUC", "setting": "AKT inhibitor VIII; [1]", "result": 0.871}, {"measurement": "IC50", "setting": "AKT inhibitor VIII; [1]", "result": "> 2.56", "unit": "µM"}, {"measurement": "AUC", "setting": "AKT inhibitor VIII; [2]", "result": 0.944}, {"measurement": "IC50", "setting": "AKT inhibitor VIII; [2]", "result": "> 10.2", "unit": "µM"}]}, {"cell line": "BxPC-3 (pancreas, adherent)", "values": [{"measurement": "AUC", "setting": "AICAR", "result": 0.824}, {"measurement": "IC50", "setting": "AICAR", "result": 1380, "unit": "µM"}, {"measurement": "AUC", "setting": "AKT inhibitor VIII; [1]", "result": 0.79}, {"measurement": "IC50", "setting": "AKT inhibitor VIII; [1]", "result": 1.3, "unit": "µM"}, {"measurement": "AUC", "setting": "AKT inhibitor VIII; [2]", "result": 0.949}, {"measurement": "IC50", "setting": "AKT inhibitor VIII; [2]", "result": "> 10.2", "unit": "µM"}]}, {"cell line": "C3A (liver, adherent)", "values": [{"measurement": "AUC", "setting": "AICAR", "result": 0.928}, {"measurement": "IC50", "setting": "AICAR", "result": "> 2000", "unit": "µM"}, {"measurement": "AUC", "setting": "AKT inhibitor VIII; [1]", "result": 0.875}, {"measurement": "IC50", "setting": "AKT inhibitor VIII; [1]", "result": "> 2.56", "unit": "µM"}, {"measurement": "AUC", "setting": "AKT inhibitor VIII; [2]", "result": 0.988}, {"measurement": "IC50", "setting": "AKT inhibitor VIII; [2]", "result": "> 10.2", "unit": "µM"}]}, {"cell line": "C32 (melanoma, adherent)", "values": [{"measurement": "AUC", "setting": "AICAR", "result": 0.925}, {"measurement": "IC50", "setting": "AICAR", "result": "> 2000", "unit": "µM"}, {"measurement": "AUC", "setting": "AKT inhibitor VIII; [1]", "result": 0.985}, {"measurement": "IC50", "setting": "AKT inhibitor VIII; [1]", "result": "> 2.56", "unit": "µM"}, {"measurement": "AUC", "setting": "AKT inhibitor VIII; [2]", "result": 0.987}, {"measurement": "IC50", "setting": "AKT inhibitor VIII; [2]", "result": "> 10.2", "unit": "µM"}]}, {"cell line": "C-4-I (cervix, adherent)", "values": [{"measurement": "AUC", "setting": "AICAR", "result": 0.912}, {"measurement": "IC50", "setting": "AICAR", "result": "> 2000", "unit": "µM"}, {"measurement": "AUC", "setting": "AKT inhibitor VIII; [1]", "result": 0.92}, {"measurement": "IC50", "setting": "AKT inhibitor VIII; [1]", "result": "> 2.56", "unit": "µM"}, {"measurement": "AUC", "setting": "AKT inhibitor VIII; [2]", "result": 0.978}, {"measurement": "IC50", "setting": "AKT inhibitor VIII; [2]", "result": "> 10.2", "unit": "µM"}]}, {"cell line": "C-33-A (cervix, adherent)", "values": [{"measurement": "AUC", "setting": "AICAR", "result": 0.969}, {"measurement": "IC50", "setting": "AICAR", "result": "> 2000", "unit": "µM"}, {"measurement": "AUC", "setting": "AKT inhibitor VIII; [1]", "result": 0.933}, {"measurement": "IC50", "setting": "AKT inhibitor VIII; [1]", "result": "> 2.56", "unit": "µM"}, {"measurement": "AUC", "setting": "AKT inhibitor VIII; [2]", "result": 0.887}, {"measurement": "IC50", "setting": "AKT inhibitor VIII; [2]", "result": "> 10.2", "unit": "µM"}]}, {"cell line": "CA46 (Burkitt lymphoma, suspension)", "values": [{"measurement": "AUC", "setting": "AICAR", "result": 0.877}, {"measurement": "IC50", "setting": "AICAR", "result": "> 2000", "unit": "µM"}, {"measurement": "AUC", "setting": "AKT inhibitor VIII; [1]", "result": 0.965}, {"measurement": "IC50", "setting": "AKT inhibitor VIII; [1]", "result": "> 2.56", "unit": "µM"}, {"measurement": "AUC", "setting": "AKT inhibitor VIII; [2]", "result": 0.629}, {"measurement": "IC50", "setting": "AKT inhibitor VIII; [2]", "result": 1.5, "unit": "µM"}]}, {"cell line": "CADO-ES1 (Ewing sarcoma, suspension)", "values": [{"measurement": "AUC", "setting": "AICAR", "result": 0.94}, {"measurement": "IC50", "setting": "AICAR", "result": "> 2000", "unit": "µM"}, {"measurement": "AUC", "setting": "AKT inhibitor VIII; [2]", "result": 0.805}, {"measurement": "IC50", "setting": "AKT inhibitor VIII; [2]", "result": 5.3, "unit": "µM"}]}, {"cell line": "CAKI-1 (kidney, adherent)", "values": [{"measurement": "AUC", "setting": "AICAR", "result": 0.853}, {"measurement": "IC50", "setting": "AICAR", "result": "> 2000", "unit": "µM"}, {"measurement": "AUC", "setting": "AKT inhibitor VIII; [1]", "result": 0.96}, {"measurement": "IC50", "setting": "AKT inhibitor VIII; [1]", "result": "> 2.56", "unit": "µM"}, {"measurement": "AUC", "setting": "AKT inhibitor VIII; [2]", "result": 0.92}, {"measurement": "IC50", "setting": "AKT inhibitor VIII; [2]", "result": "> 10.2", "unit": "µM"}]}]}
